# Experimental data from the supplement of paper PMC8728848.
# This is one part of the list.
# B1: DrGal3 (Danio rerio) (protein)
# chain: MDLSDALDAPPQQNNQQAGGPVWPGQPANPVWPGQPANPTWPGQPNQPAWPGQPNQQWPGQPGQPTAPGWPGPAPQTGPYGAPGQAPQVLTVPLDFPLQNGAYNKMLITINGEVKPNAKQFTVNLRRGNDIAFHINPRFSEGGKPVIVRNSMIGNNWGREERELPSFPFVPGKPFEMKILITDTEYKVAVNKSHLLEFKHRVFELNQITGLSIYNDVTLSTVNVETLQ
# Key:
# Assay in all cases: glycan array binding signal (z-score within array); higher = stronger binding
# Conditions in all cases: glycan notation: IUPAC condensed, linker removed
# [1] = molecular target: Fuc(a1-2)Gal(b1-4)GlcNAc(b1-3)Gal(b1-4)GlcNAc(b1-2)Man(a1-3)[Fuc(a1-2)Gal(b1-4)GlcNAc(b1-3)Gal(b1-4)GlcNAc(b1-2)Man(a1-6)]Man(b1-4)GlcNAc(b1-4)GlcNAc
# Summary of the method: (§1)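 The binding signal is a Z-score computed within each array. Data were drawn from 3228 arrays in the Consortium for Functional Glycomics database, restricted to those with a known protein sequence. Scores were averaged over arrays of the same protein sequence at different concentrations or buffers, and over linkers, and negative values can be taken as non-binding.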
# [2] = molecular target: Fuc(a1-2)Gal(b1-4)GlcNAc(b1-3)Gal(b1-4)GlcNAc(b1-3)Gal(b1-4)GlcNAc
# Summary of the method: as §1
# [3] = molecular target: Fuc(a1-2)Gal(b1-4)GlcNAc(b1-3)GalNAc
# Summary of the method: as §1
# [4] = molecular target: Fuc(a1-2)Gal(b1-4)GlcNAc(b1-3)[Fuc(a1-2)Gal(b1-4)GlcNAc(b1-6)]GalNAc
# Summary of the method: as §1
# [5] = molecular target: Fuc(a1-2)Gal(b1-4)GlcNAc(b1-3)[Fuc(a1-3)[Gal(b1-4)]GlcNAc(b1-6)]Gal(b1-4)Glc
# Summary of the method: as §1
# [6] = molecular target: Fuc(a1-2)Gal(b1-4)GlcNAc(b1-6)GalNAc
# Summary of the method: as §1
# [7] = molecular target: Fuc(a1-2)Gal(b1-4)GlcNAc6S
# Summary of the method: as §1
# [8] = molecular target: Fuc(a1-2)Gal(b1-4)[Fuc(a1-3)]GlcNAc
# Summary of the method: as §1
# [9] = molecular target: Fuc(a1-2)Gal(b1-4)[Fuc(a1-3)]GlcNAc(b1-2)Man(a1-3)[Fuc(a1-2)Gal(b1-4)[Fuc(a1-3)]GlcNAc(b1-2)Man(a1-6)]Man(b1-4)GlcNAc(b1-4)[Fuc(a1-6)]GlcNAc
# Summary of the method: as §1
# [10] = molecular target: Fuc(a1-2)Gal(b1-4)[Fuc(a1-3)]GlcNAc(b1-2)[Fuc(a1-2)Gal(b1-4)[Fuc(a1-3)]GlcNAc(b1-4)]Man(a1-3)[Fuc(a1-2)Gal(b1-4)[Fuc(a1-3)]GlcNAc(b1-2)Man(a1-6)]Man(b1-4)GlcNAc(b1-4)GlcNAc
# Summary of the method: as §1
# [11] = molecular target: Fuc(a1-2)Gal(b1-4)[Fuc(a1-3)]GlcNAc(b1-3)Gal(b1-4)[Fuc(a1-3)]GlcNAc
# Summary of the method: as §1
# [12] = molecular target: Fuc(a1-2)Gal(b1-4)[Fuc(a1-3)]GlcNAc(b1-3)Gal(b1-4)[Fuc(a1-3)]GlcNAc(b1-3)Gal(b1-4)[Fuc(a1-3)]GlcNAc
# Summary of the method: as §1
# [13] = molecular target: Fuc(a1-2)Gal(b1-4)[Fuc(a1-3)]GlcNAc(b1-3)GalNAc
# Summary of the method: as §1
# [14] = molecular target: Fuc(a1-2)Gal(b1-4)[Fuc(a1-3)]GlcNAc(b1-3)[Neu5Ac(a2-6)Gal(b1-4)GlcNAc(b1-6)]Gal(b1-4)Glc
# Summary of the method: as §1
# [15] = molecular target: Fuc(a1-2)Gal3S(b1-4)GlcNAc
# Summary of the method: as §1
# [16] = molecular target: Fuc(a1-2)Gal6S(b1-3)GlcNAc
# Summary of the method: as §1
# [17] = molecular target: Fuc(a1-2)Gal6S(b1-3)GlcNAc6S
# Summary of the method: as §1
# Fuc(a1-2)Gal6S(b1-4)Glc = molecular target: Fuc(a1-2)Gal6S(b1-4)Glc
# Summary of the method: as §1
# [18] = molecular target: Fuc(a1-2)Gal6S(b1-4)Glc6S
# Summary of the method: as §1
# Fuc(a1-2)[Gal(a1-3)]Gal = molecular target: Fuc(a1-2)[Gal(a1-3)]Gal
# Summary of the method: as §1
# [19] = molecular target: Fuc(a1-2)[Gal(a1-3)]Gal(b1-3)GalNAc
# Summary of the method: as §1
# [20] = molecular target: Fuc(a1-2)[Gal(a1-3)]Gal(b1-3)GalNAc(b1-3)Gal(a1-4)Gal(b1-4)Glc
# Summary of the method: as §1
# [21] = molecular target: Fuc(a1-2)[Gal(a1-3)]Gal(b1-3)GlcNAc
# Summary of the method: as §1
# [22] = molecular target: Fuc(a1-2)[Gal(a1-3)]Gal(b1-3)GlcNAc(b1-2)Man(a1-3)[Fuc(a1-2)[Gal(a1-3)]Gal(b1-3)GlcNAc(b1-2)Man(a1-6)]Man(b1-4)GlcNAc(b1-4)GlcNAc
# Summary of the method: as §1
# [23] = molecular target: Fuc(a1-2)[Gal(a1-3)]Gal(b1-3)GlcNAc(b1-2)Man(a1-3)[Fuc(a1-2)[Gal(a1-3)]Gal(b1-3)GlcNAc(b1-2)Man(a1-6)]Man(b1-4)GlcNAc(b1-4)[Fuc(a1-6)]GlcNAc
# Summary of the method: as §1
# [24] = molecular target: Fuc(a1-2)[Gal(a1-3)]Gal(b1-3)GlcNAc(b1-3)GalNAc
# Summary of the method: as §1
# [25] = molecular target: Fuc(a1-2)[Gal(a1-3)]Gal(b1-3)GlcNAc(b1-6)GalNAc
# Summary of the method: as §1
# [26] = molecular target: Fuc(a1-2)[Gal(a1-3)]Gal(b1-4)Glc
# Summary of the method: as §1
# [27] = molecular target: Fuc(a1-2)[Gal(a1-3)]Gal(b1-4)GlcNAc
# Summary of the method: as §1
# [28] = molecular target: Fuc(a1-2)[Gal(a1-3)]Gal(b1-4)GlcNAc(b1-2)Man
# Summary of the method: as §1
# [29] = molecular target: Fuc(a1-2)[Gal(a1-3)]Gal(b1-4)GlcNAc(b1-2)Man(a1-3)[Fuc(a1-2)[Gal(a1-3)]Gal(b1-4)GlcNAc(b1-2)Man(a1-6)]Man(b1-4)GlcNAc(b1-4)GlcNAc
# Summary of the method: as §1
# [30] = molecular target: Fuc(a1-2)[Gal(a1-3)]Gal(b1-4)GlcNAc(b1-2)Man(a1-3)[Fuc(a1-2)[Gal(a1-3)]Gal(b1-4)GlcNAc(b1-2)Man(a1-6)]Man(b1-4)GlcNAc(b1-4)[Fuc(a1-6)]GlcNAc
# Summary of the method: as §1
# [31] = molecular target: Fuc(a1-2)[Gal(a1-3)]Gal(b1-4)GlcNAc(b1-3)GalNAc
# Summary of the method: as §1
# [32] = molecular target: Fuc(a1-2)[Gal(a1-3)]Gal(b1-4)GlcNAc(b1-3)[Fuc(a1-2)[Gal(a1-3)]Gal(b1-4)GlcNAc(b1-6)]GalNAc
# Summary of the method: as §1
# [33] = molecular target: Fuc(a1-2)[Gal(a1-3)]Gal(b1-4)GlcNAc(b1-6)GalNAc
# Summary of the method: as §1
# [34] = molecular target: Fuc(a1-2)[Gal(a1-3)]Gal(b1-4)[Fuc(a1-3)]Glc
# Summary of the method: as §1
# [35] = molecular target: Fuc(a1-2)[Gal(a1-3)]Gal(b1-4)[Fuc(a1-3)]GlcNAc
# Summary of the method: as §1
# [36] = molecular target: Fuc(a1-2)[Gal(a1-3)]Gal(b1-4)[Fuc(a1-3)]GlcNAc(b1-3)GalNAc
# Summary of the method: as §1
# [37] = molecular target: Fuc(a1-2)[Gal(a1-4)]Gal(b1-4)GlcNAc
# Summary of the method: as §1
# [38] = molecular target: Fuc(a1-2)[GalNAc(a1-3)]Gal
# Summary of the method: as §1
# [39] = molecular target: Fuc(a1-2)[GalNAc(a1-3)]Gal(b1-3)GalNAc(a1-3)[Fuc(a1-2)]Gal(b1-4)GlcNAc
# Summary of the method: as §1
# [40] = molecular target: Fuc(a1-2)[GalNAc(a1-3)]Gal(b1-3)GalNAc(b1-3)Gal(a1-4)Gal(b1-4)Glc
# Summary of the method: as §1
# [41] = molecular target: Fuc(a1-2)[GalNAc(a1-3)]Gal(b1-3)GlcNAc
# Summary of the method: as §1
# [42] = molecular target: Fuc(a1-2)[GalNAc(a1-3)]Gal(b1-3)GlcNAc(b1-2)Man(a1-3)[Fuc(a1-2)[GalNAc(a1-3)]Gal(b1-3)GlcNAc(b1-2)Man(a1-6)]Man(b1-4)GlcNAc(b1-4)GlcNAc
# Summary of the method: as §1
# [43] = molecular target: Fuc(a1-2)[GalNAc(a1-3)]Gal(b1-3)GlcNAc(b1-2)Man(a1-3)[Fuc(a1-2)[GalNAc(a1-3)]Gal(b1-3)GlcNAc(b1-2)Man(a1-6)]Man(b1-4)GlcNAc(b1-4)[Fuc(a1-6)]GlcNAc
# Summary of the method: as §1
binder,measurement,setting,value
B1,glycan array binding signal (z-score),[1],1.52
same,glycan array binding signal (z-score),[2],0.974
same,glycan array binding signal (z-score),[3],-0.273
same,glycan array binding signal (z-score),[4],-0.225
same,glycan array binding signal (z-score),[5],-0.183
same,glycan array binding signal (z-score),[6],-0.25
same,glycan array binding signal (z-score),[7],-0.23
same,glycan array binding signal (z-score),[8],-0.245
same,glycan array binding signal (z-score),[9],-0.265
same,glycan array binding signal (z-score),[10],-0.226
same,glycan array binding signal (z-score),[11],-0.245
same,glycan array binding signal (z-score),[12],-0.151
same,glycan array binding signal (z-score),[13],-0.228
same,glycan array binding signal (z-score),[14],-0.269
same,glycan array binding signal (z-score),[15],-0.262
same,glycan array binding signal (z-score),[16],-0.286
same,glycan array binding signal (z-score),[17],-0.055
same,glycan array binding signal (z-score),Fuc(a1-2)Gal6S(b1-4)Glc,-0.275
same,glycan array binding signal (z-score),[18],-0.211
same,glycan array binding signal (z-score),Fuc(a1-2)[Gal(a1-3)]Gal,-0.159
same,glycan array binding signal (z-score),[19],-0.226
same,glycan array binding signal (z-score),[20],0.361
same,glycan array binding signal (z-score),[21],-0.084
same,glycan array binding signal (z-score),[22],-0.153
same,glycan array binding signal (z-score),[23],-0.174
same,glycan array binding signal (z-score),[24],-0.14
same,glycan array binding signal (z-score),[25],-0.184
same,glycan array binding signal (z-score),[26],-0.085
same,glycan array binding signal (z-score),[27],0.416
same,glycan array binding signal (z-score),[28],0.262
same,glycan array binding signal (z-score),[29],0.846
same,glycan array binding signal (z-score),[30],0.097
same,glycan array binding signal (z-score),[31],-0.177
same,glycan array binding signal (z-score),[32],0.027
same,glycan array binding signal (z-score),[33],-0.268
same,glycan array binding signal (z-score),[34],-0.291
same,glycan array binding signal (z-score),[35],-0.244
same,glycan array binding signal (z-score),[36],-0.244
same,glycan array binding signal (z-score),[37],-0.087
same,glycan array binding signal (z-score),[38],-0.254
same,glycan array binding signal (z-score),[39],-0.173
same,glycan array binding signal (z-score),[40],-0.209
same,glycan array binding signal (z-score),[41],-0.212
same,glycan array binding signal (z-score),[42],-0.237
same,glycan array binding signal (z-score),[43],-0.287
